# Results: the supplement of paper PMC11417369
# The list shows a part of the results.
# Tested on: PfAP2-HC AP2 domain (GST-tagged)
# Assay: gcPBM binding intensity (ln(normalized median fluorescence intensity)); higher = stronger DNA binding
# How it was run: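 Probes on an Agilent 4 × 180k array were primer-extended, double-stranded and 36 bp long, taken from intergenic genomic regions, with negative controls added. GST-tagged P. falciparum DNA-binding domains from E. coli, about 25 μg on average, were applied to the array for 1 h in 1× PBS containing 1% milk, 0.2 mg/ml BSA, 0.5% salmon testes DNA and 0.03% Triton X-100. Binding intensity, obtained after Alexa488 anti-GST antibody detection and a 488 nm scan, is the highest Masliner-normalised natural-log median intensity across replicate spots of either probe orientation.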
row,Sequence,gcPBM binding intensity (ln)
1,TACACAAATATATACATACACACATATATACGCATA [CACACA_site394],9.97
2,TAATATTGACTATATACACACATATATATATATATA [CACACA_site575],9.8
3,CAGACATATTAAAAGAGTACATATATATATATATAT [XGTACX_site1158],10.1
4,TGTTTATTACTCAGGTGTACTCAATTTTTTTTTTTT [XGTACX_site3470],9.63
5,TATTTTTAAAATATAAGTAAAAAAATAATATAAACT [TGCATGCA_negctrl_site283],9.61
6,AATAAATAAAGAAGTACACACATATATATATATATA [CACACA_site4314],10.1
7,AAATGAATAAATAGGTCACACACAAATATATATAAA [CACACA_site8764],10.6
8,ATATATATATATATATGTACATATACATATGTGCAA [XGTACX_site5604],9.78
9,ATTTATTTTATTTTCACACACAAAAATAAATATCCG [CACACA_site2414],9.9
10,ATAAAAAAAAAAAAAAGTACACATATAAAAGTATTG [XGTACX_site8265],9.6
11,TAAATAATATCTATCACACACGCATAAATACAGATA [CACACA_site5449],10.3
12,ATTCTACCACGCGATATACACACTTGTAGACATCTT [CACACA_site188],9.95
13,TATAATGTATGTAGTGCACACCTCTATAATATATTA [CACACA_site8560],9.85
14,AAATTTATGTGTGCCTGTACATATCAAAGATTTAAG [XGTACX_site8547],9.7
15,CGCAATTAAAATATGTGTCCTCATTTTATAACATTT [XGTACX_site5340],9.61
16,TAATTTCTTAGGTATTGTACAAATATTATATGATAT [XGTACX_site256],9.5
17,ATAATAAAAAAAATTAGTACATATATAAATATAAAT [XGTACX_site1937],9.74
18,ATATATCTATAAAAGGCTTCCCACTTTTTTTGTCAA [TGCATGCA_negctrl_site332],9.43
19,AGTACATTTTTGTGTGTGCACTAATATTATATACTT [GTGCAC_site9568],10
20,AATAAAATATAATAATTAATATATATATATATATAA [GTGCAC_negctrl_site457],9.53
21,TTATGTTGTAAATACACACATACATATACATACACA [CACACA_site733],9.91
22,TATGTGAAATAAGGATGTACAATTTTGATTTCCCCA [XGTACX_site8389],9.57

row,Sequence,gcPBM binding intensity (ln)
1,GTGTACAAAATATGGTAATAAAGTAGTTACATGAAT [CACACA_negctrl_site1775],9.86
2,CTAAATTGTTAATAGAGTACATTTGTATAATATAAG [XGTACX_site594],9.51
3,TTTTAATAATTTATAAAAAAAAAAAAAAAATAAATA [TGCATGCA_negctrl_site419],9.36
4,TTTAATGAAAGAAACACATACGTATCAAAATATATG [TGCATGCA_negctrl_site510],9.56
5,TACGTTGTATATTTTTGTACATATTGAATTACAAAA [XGTACX_site5906],9.54
6,TTCATATGGAATAAAAGTACGTATTAAAACAATTTT [XGTACX_site8742],9.45
7,GAACAATATATTTGCACACAAAAAATATATATTTAT [CACACA_site3317],10.1
8,GGATAAAAAATATGTACACACATATAGATATCTATA [CACACA_site2693],9.8
9,GTTTACATCATTCTGGTGCAAAAAAAAAAAAAAATA,9.45
10,GAATACTCATTTCTTTGTACATATATATGTGTATTT [XGTACX_site6411],10
11,TAGATTTAAAAAAAAAAAAAATTTTTTTTTTTTTTT [TGCATGCA_negctrl_site593],9.01
12,ATACAAGTATTAATTACACACTCAAAAAGAAAAAAC [CACACA_site5287],9.87
13,AAAGCAAATAATAAGTGTACGGGTCAATATATGCGT [XGTACX_site1519],10.2
14,CATATAAACAATAACACACACCTAGGTACATGGAAA [CACACA_site4615],10.2
15,CTTTTTAATTTATCGACACACGCATGAATAGAAATT [CACACA_site9112],9.6
16,GTTATAAAATATGGCACACAAAATGTAAGTAAATGA [CACACA_site1458],9.95
17,ATATATTTTGTTATGGTGCGTAAGAAATATATTCTT [GTGCAC_site9825],9.59
18,GATCTTTAAATTTATTGTACATAAATGTATATGTTA [XGTACX_site1107],9.7
19,TATCACATATTATGATGTACAAGGATTCTGACTAAT [XGTACX_site1196],9.52
20,TTTATTTATCTGAACACATGCAGACAAATAACATAT [TGCATGCA_site929],9.41
21,ATTATATATAAACACACACACATGCATGCACATATA [CACACA_site4237],10.2
22,CATAAACTTTATAACACACACTTATAAATATAAATA [CACACA_site6646],10.2

row,Sequence,gcPBM binding intensity (ln)
1,ATATCTATAATAAACACACACATATACCTATAGGTA [CACACA_site7596],10.1
2,GGGCATATAATATAAAGTACAGGACTATAAAAATAT [XGTACX_site4481],9.57
3,TATTATATGTATTGCACACCTTCAACAACTACTTCT [CACACA_site655],9.97
4,ATTGTGCACTTATATGCACACATTTTAGTTTTTTTT [CACACA_site2028],9.89
5,TATATATTATAAAATAGTACACAGAATTTAAATATA [XGTACX_site100],9.57
6,TATATATAGAAACACACACACATATATATATATTTT [CACACA_site2540],10.5
7,TTGTTGATTGTTATTTATCATTAGATGTAAAATATG [CACACA_negctrl_site927],9.6
8,TCTTTTAAACAGTACACACACACATATATATATATA [CACACA_site924],10.7
9,AATATTTTTTTATAAACACACATATAAATAAATATA [CACACA_site7622],9.51
10,TTATGAAATAGAATAACACACATATTTATATATGTG [CACACA_site2050],9.65
11,CATAGAATAATTTATTGTACGTGCATGCTATTTTTT [XGTACX_site8984],9.78
12,TATACATTTTTATAAAGTACACAAAAATAAATATAA [XGTACX_site1647],9.59
13,ATTAAATATATGATGTGTACATATTCGTGTATGTTT [XGTACX_site2141],9.75
14,AAACAGAATACATATACACACATACAAAAAAGTGCA [CACACA_site8235],10.1
15,AAAATAAATTTTTATGTTATATATACAATTTCTCTA [CACACA_negctrl_site1760],9.37
16,TATAATATTTATATAACACACATATATATTTATTTA [CACACA_site280],9.67
17,AATGCTATCTTCTTATTTTTCATACACAACATGAAC [CACACA_negctrl_site1809],9.72
18,TATTTTTTTAAAAATACACACATAAAATCATGAAAA [CACACA_site1085],9.55
19,TTTTTTTATATTTTTAGTACACATTGGTATATATAT [XGTACX_site4114],9.78
20,ATATATATATGTCAAAGTACTAAAAATATATACATA [XGTACX_site3397],9.72
21,AACATTTTAAATTATACACACATTTTGAATATATAT [CACACA_site3470],9.74
22,TGTTGTTGTAATTATTGTACGTTATGCGATTATTAT [XGTACX_site7005],9.78

row,Sequence,gcPBM binding intensity (ln)
1,TATACACCCAGACACACACACACACCCAAAAAAAAA [CACACA_site497],10.9
2,TAATGTTACACAAACTTTTCATTCTTTTTAATAAAT [TGCATGCA_negctrl_site331],9.43
3,ATATAATTATAAAATAAACACACATATATATTTATA [CACACA_site8039],9.91
4,TTATTTATTTATAATTGTACATTGCAAATGAATTTA [XGTACX_site4083],9.25
5,ATATATATATATATATGTACATAGAGAAGTATCTTT [XGTACX_site4737],9.81
6,ATTTTATAAAGGAAGTGTACTAATAAATTCAAATTA [XGTACX_site3922],9.34
7,AAGAAAAAATATACTTCACACATTTAATATATAATT [CACACA_site4919],9.61
8,AAAAAAAAAAAAAAATGTACAAATATATACATATAT [XGTACX_site935],9.59
9,AAAAAAGAATTGTGCACACACAAAAAATGTTCATAA [CACACA_site1103],10.2
10,TCGATGTTGGTAGGATGTACGGTACCGGTAGTATTT [XGTACX_site4214],9.66
11,AAAATAAACTATAGTACACACTTATTATTATGAAAT [CACACA_site5488],9.85
12,GATATATTTTATATATGTACATACAAGGGTAAATAT [XGTACX_site1202],9.68
13,TCAATTAGACGAAAATGTACATATGTATATATTTTT [XGTACX_site5027],9.62
14,AAAATATGTAGCTACACACACATAAACAAAATAACA [CACACA_site1007],10.1
15,GAAAACAAAATGGTAACACACAAATGTAAATAGTAT [CACACA_site2113],10
16,AAAATAAATAAATACACACACACGAATATTTATATA [CACACA_site6892],10.6
17,ATTATAAAAATATCGTGTACATATTTTTTAAAATAA [XGTACX_site5072],9.34
18,AAAAAAAAAAAAAAAAGTACACATCATTTTATGAAA [XGTACX_site1402],9.43
19,ATTATTTCAATTTTTTTTGTTTTTAAAAAAAAAAAT [CACACA_negctrl_site1387],9.25
20,TAGTAGTTATCATTAACATGCAATAATATTATTTAA [TGCATGCA_site178],9.45
21,AAGTTAGGATAGATCCAATAATTTTTAGTTTCTCTT [GTGCAC_negctrl_site272],9.45
22,ATGAACATATTTTTTTGTACTTATGAAAATATGTTA [XGTACX_site5996],9.44
